Test results as given in PubChem BioAssay AID686979 (National Center for Advancing Translational Sciences (NCATS), 2013).
Screen size: about 420,000 compounds; about 50,000 (12%) were called active. The shares of active, inactive and inconclusive entries below differ from those in the screen. The call rests on the fitted dose curve; in most records, active means well fitted inhibition curve with a large enough effect; inconclusive means small, poorly fitted or top-dose-only effect; inactive means flat fitted curve, though single readings scatter. Potencies of inconclusive entries are left out as doubtful fits.

Experiment: qHTS for Inhibitors of human tyrosyl-DNA phosphodiesterase 1 (TDP1): qHTS in cells in presence of CPT; further: nearly all actives have a fitted effect of over 55% in size
Conditions: chicken DT40 Tdp1-/-;hTDP1 cells + 20 nM CPT, ATP luminescence, 48 h; activity change, negative = growth inhibition: at 46.2 µM (top of the series)
How it was run: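 Cell growth measured by CellTiter-Glo luminescence after a minimum 48 h, 37 C compound exposure with 20 nM CPT in Tdp1-knockout DT40 cells stably expressing hTDP1, seeded 400/well; qHTS titration format.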
On the % scale 0 is the no-effect control and ±100 the full control effect; potency means the concentration at half of the fitted maximal effect; tags describe the fitted curve by direction and shape.

| Structure (SMILES) | activity change, negative = growth inhibition | Potency |
| --- | --- | --- |
| CCCn1nc(-c2ccccc2)c2nc3ccccc3nc21 | inactive: -0.0309% | – |
| CC(C)Nc1cc(N2CCN(C3CCCCC3)CC2)c2noc3c2c1C(=O)c1ccccc1-3 | – | inconclusive [inhibitor, single point] |
| Brc1ccc(-c2csc(NNC3=NCCCCC3)n2)cc1 | – | inconclusive [inhibitor, single point] |
| COc1ccc(CCNc2nc(-c3ccccc3OC)cc(C(F)(F)F)n2)cc1OC | – | inconclusive [inhibitor, single point] |
| Cc1ccccc1NC(=O)Cc1nc(COC(=O)c2cc([N+](=O)[O-])ccc2NCCO)cs1 | – | inconclusive [inhibitor, single point] |
| Cc1cs/c(=N\N=C\c2ccc(O)cc2)n1Cc1ccco1 | inactive: -14.2% | – |
| COc1ccc(CCN2CC(C(=O)OCC(=O)c3c(N)n(CC(C)C)c(=O)n(C)c3=O)CC2=O)cc1OC (stereo not drawn) | – | active: 20.6 µM |
| O=C1NC[C@H](c2ccccc2)OC(=O)[C@H](Cc2ccc(F)cc2)CC/C=C/C[C@@H]1CC(=O)N(CCO)Cc1ccccc1 | – | active: 9.2 µM |
| CCCCC(O)(CCN1CCOCC1)c1ccc(Cl)cc1 (stereo not drawn) | – | inconclusive [inhibitor, single point] |
| Cc1ccc(C)n1-n1c(C)nc2scc(-c3ccccc3)c2c1=O | – | inconclusive [inhibitor, single point] |
| CCOC(=O)N1CCN(C2=C(NS(=O)(=O)c3ccc(C)cc3)C(=O)c3ccccc3C2=O)CC1 | – | active: 8.2 µM |
| O=C(Nc1nc(-c2ccccc2)ns1)c1ccncc1 | – | inconclusive [inhibitor, single point] |
| Clc1ccc(-c2nnc(CCc3ccccc3)o2)c(Cl)c1 | inactive: -1.72% | – |
| CCOC(=O)c1[nH]c(C)c(CCC(=O)Nc2ccc(C)cc2Cl)c1C | inactive: -30% | – |
| O=C(CSc1ccc(-c2ccc(-n3cccn3)cc2)nn1)Nc1ccccc1F | inactive: -19.9% | – |
| CC1CCCN(C(=O)c2cn(-c3ccccc3)nc2-c2cccnc2)C1 (stereo not drawn) | inactive: -27.7% | – |
| COCc1c(C(=O)N2CCN(C(C)C)CC2)cnn1-c1nccc(-c2cc(C)sc2C)n1 | inactive: 3.35% | – |
| O=C(c1cc(-c2cccc(Cl)c2)nc2ccccc12)N1CCCC1 | – | inconclusive [inhibitor, single point] |
| O=C(Nc1cccc(Cl)c1)Nc1nnc(-c2ccncc2)s1 | – | active: 7.31 µM |
| Cc1ccc(Cl)cc1NC(=O)C(NS(=O)(=O)c1ccc2c(c1)CCC(=O)N2)c1ccccc1 (stereo not drawn) | – | inconclusive [inhibitor, single point] |
| O=C(c1ccc2c(c1)CCN2S(=O)(=O)c1ccccc1)N1CCN(c2ccccc2)CC1 | – | inconclusive [inhibitor, single point] |
| COc1ccc(-n2c(-c3ccc(Cl)cc3)c[nH]c2=S)cc1 | inactive: -21.5% | – |
| C/C(N)=C(/C#N)C(=O)COC(=O)c1ccccc1Cc1ccccc1 | – | inconclusive [inhibitor, single point] |
| Cc1ccc(NC(=O)COC(=O)c2ccccc2OCC(=O)N(C)C)cc1 | – | inconclusive [inhibitor, single point] |

| Structure (SMILES) | activity change, negative = growth inhibition | Potency |
| --- | --- | --- |
| N#CC(C#N)=Cc1ccc(-c2ccc(S(=O)(=O)N=C(N)N)cc2)o1 | – | inconclusive [inhibitor, single point] |
| O=C(Nc1nc2c(c(=O)[nH]1)CCCC2)C1CC1 | – | inconclusive [inhibitor, partial curve] |
| CC(C)c1ccc(OCC(=O)Nc2c3c(nn2C(C)(C)C)CS(=O)(=O)C3)cc1 | – | active: 11.6 µM |
| CCCCOc1ccccc1NC(=O)c1ccco1 | – | inconclusive [inhibitor, single point] |
| O=C1NC(=Nc2ccccc2Cl)S/C1=C\c1ccc(C(=O)O)cc1 | inactive: 7.53% | – |
| Cc1ccc2cc(CCNC(=O)c3cc4ccccc4o3)c(=O)[nH]c2c1C | – | inconclusive [inhibitor, single point] |
| Cc1ccc(NC(=O)CC2Nc3ccccc3NC2=O)cc1Cl (stereo not drawn) | – | inconclusive [inhibitor, single point] |
| CNC(=O)c1cc(-c2cccs2)on1 | – | inconclusive [inhibitor, partial curve] |
| CCOC(=O)c1ccccc1NC(=O)/C=C/C(=O)O | inactive: -19.4% | – |
| COc1ccc(OC)c(C(=O)COC(=O)COc2ccccc2F)c1 | – | inconclusive [inhibitor, single point] |
| COc1ccc(C=NNC(=O)c2cc(C)oc2C)cc1O | – | inconclusive [inhibitor, single point] |
| Cc1cc2nc3n(c2cc1C)CC1CC(C(=O)NCc2cccc(C(F)(F)F)c2)N(C)C31 (stereo not drawn) | inactive: -12% | – |
| COc1cc(OC)c2c(-c3cccc(-c4ccc(O)cc4)c3)cc(=O)oc2c1 | – | inconclusive [inhibitor, single point] |
| Nc1nnc(CC2=CCCCC2)s1 | inactive: -9.56% | – |
| Cc1ccc(N=Nc2c(N)n[nH]c2N)cc1 | inactive: 2.1% | – |
| COc1ccc(CNCCC(c2ccc(OC(C)C)cc2)c2ccccc2OC)cc1 (stereo not drawn) | – | active: 13 µM |
| O=C(CCn1c(=O)sc2ccccc21)NCCC1=CCCCC1 | – | inconclusive [inhibitor, single point] |
| CC(C)(C)C(=O)Nc1ccc2nc(SCc3ccccc3)sc2c1 | – | inconclusive [inhibitor, single point] |
| CCOC(=O)[C@]12CCCC=C1N(Cc1cccc3ccccc13)C(=O)[C@H](CC(=O)NCC13CC4CC(CC(C4)C1)C3)C2 | – | inconclusive [inhibitor, single point] |
| CCn1c(SCC(=O)Nc2ccc3c(c2)OCO3)nc2ccccc21 | inactive: -11.7% | – |
| Cc1cc(N/N=C/c2ccc(F)cc2)nc(NCc2ccccc2)n1 | – | active: 8.2 µM |
| Cc1cccc(NC(=O)CC2C(=O)OCCN2Cc2ccccc2)c1 (stereo not drawn) | inactive: -23.7% | – |
| CN(C(=O)CSc1cccc[n+]1[O-])C1CCCCC1 | – | inconclusive [inhibitor, single point] |
| CO/N=C/c1ccc(Oc2ccc([N+](=O)[O-])cc2[N+](=O)[O-])c(OC)c1 | – | inconclusive [inhibitor, single point] |
